# In all, about 360,000 compounds went through this assay and about 2,600 (0.72%) were called active. Inconclusive means that the source gave no clear call. Such entries were picked first, then a sample of the others. Calls follow the shape of the dose curve; as a rule, active = well fitted inhibition curve with a large enough effect; inconclusive = small, poorly fitted or top-dose-only effect; inactive = no such curve, though single readings can be large or run the other way. Where the call is inconclusive, the potency comes from a doubtful curve fit.
# Assay: Primary qHTS for Inhibitors of ATXN expression; also: nearly all actives have a fitted effect of over 55% in size
# Conditions: HEK-293 ATXN2-luciferase reporter, luminescence, 24 h; activity change, negative = inhibition: at 57 µM (top of the series)
# How it was run: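 ATXN2-luciferase reporter cells (luciferase flanked by upstream and downstream ATXN2 gene portions) were treated 24 h at 37 °C with compounds at up to 57 uM. SteadyGlo luminescence gave expression; GF-AFC fluorescence gave viability.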
# % is scaled to controls: 0 for no effect and ±100 for the full control effect; potency is read from the fitted curve at half-maximal effect; tags tell the direction and shape of the fitted curve.
SMILES,"activity change, negative = inhibition",Potency
COc1cc2c3cc1Oc1c(OC)c(OC)cc4c1[C@H](Cc1ccc(cc1)Oc1cc(ccc1O)C[C@H]3N(C)CC2)N(C)CC4,inactive: -11.1%,–
O=C1NC(=S)NC(=O)C1=Cc1c(Cl)cccc1Cl,–,"inconclusive: 28.2 µM [inhibitor, single point]"
N#CC(C#N)=Cc1ccc(C=C(C#N)C#N)cc1,inconclusive: -42% [inhibitor],–
COc1ccc2c(c1)CN(C)CC2c1ccc(Cl)c(Cl)c1 (stereo not given),–,"inconclusive: 27.3 µM [inhibitor, single point]"
CCCCn1c(C)c(C(=O)OCC)c2c(CN3CCCC3)c(O)ccc21,–,"inconclusive: 39.8 µM [inhibitor, partial curve, poor fit]"
CCOC(=O)C(C)Oc1cc(C)cc2oc(=O)c3c(c12)CCCC3 (stereo not given),inactive: 58.9%,–
CC1CCC/C=C/C2CC(O)CC2C(O)/C=C/C(=O)O1 (stereo not given),–,"inconclusive: 1.12 µM [inhibitor, full curve]"
Cc1ccc(N2C(=O)NC(=O)/C(=C/C=C/c3ccco3)C2=O)cc1,–,"inconclusive: 20 µM [inhibitor, partial curve, poor fit]"
O=c1c2ccccc2nc(Cc2ccccc2)n1-c1cccc(O)c1,inactive: -12.7%,–
COc1ccc(C=O)cc1O,inactive: 6.87%,–
CCOc1cc2c(cc1OCC)-n1cccc1C(c1ccc(C)cc1C)NC2 (stereo not given),–,"inconclusive: 35.5 µM [inhibitor, single point]"
CCOC(=O)CNC(=O)CNC(=O)C(Cc1ccc(N(CCCl)CCCl)cc1)NC(C)=O (stereo not given),–,"inconclusive: 11.9 µM [inhibitor, partial curve, poor fit]"
CC[C@@H](O)C[C@H]1CCC[C@@]2(C[C@@H]3OC(=O)/C=C/[C@@](C)(O)[C@@H](O)[C@H](C)[C@@H](O)[C@H](OC4CCC(N(C)C)C(C)O4)[C@@H](O)[C@](C)(O)CCCCC/C=C/[C@@H]4CC(C)(C)O[C@@]4(O)C[C@H](O2)[C@H]3C)O1 (stereo not given in full),–,"inconclusive: 0.0075 µM [inhibitor, full curve, poor fit]"
CN1CCC(N(C)c2nc(-c3ccccc3)nc3ccccc23)CC1,–,"inconclusive: 17.8 µM [inhibitor, single point]"
Cc1oc(-c2ccccc2Cl)nc1CN1C(=O)CN=C(c2ccccc2)c2ccccc21,inactive: -19.4%,–
COC(=O)C1=C(c2ccc(F)cc2F)C[C@@H]2CC[C@H]1N2C(=O)N1CCC(O)(c2ccc(Cl)cc2)CC1,–,"inconclusive: 35.5 µM [inhibitor, single point]"
O=C1NS(=O)c2cc([N+](=O)[O-])cc([N+](=O)[O-])c21 (stereo not given),–,"inconclusive: 0.299 µM [inhibitor, full curve, poor fit]"
COC(=O)C1=C(c2ccc(Cl)c(C(F)(F)F)c2)C[C@@H]2CC[C@H]1N2C(=O)NCCOc1ccccc1,–,"inconclusive: 39.8 µM [inhibitor, single point]"
C=C1C(=O)O[C@H]2C[C@@H](C)[C@@H]3C=CC(=O)[C@@]3(C)C[C@H]12,–,active: 6.31 µM
Cc1cccc(N2C(=O)NC(=O)/C(=C\c3cccn3-c3ccc(Cl)cc3)C2=O)c1,–,"inconclusive: 35.5 µM [inhibitor, single point]"

SMILES,"activity change, negative = inhibition",Potency
Cc1cccc(-n2c(/C=C/c3ccc([N+](=O)[O-])o3)nc3ccccc3c2=O)c1,–,active: 14.1 µM
CCC1CN2CCc3cc(OC)c(OC)cc3C2CC1CC1NCCc2c1[nH]c1ccc(O)cc21 (stereo not given),–,active: 0.0075 µM
COC(=O)C1=C(c2ccc(F)cc2OCc2ccccc2)C[C@@H]2CC[C@H]1N2C(=O)NCc1ccc(F)cc1,–,"inconclusive: 28.2 µM [inhibitor, single point]"
Cc1ccc(C(O)(c2ccc(C)c(C)c2)C2CN3CCC2CC3)cc1C (stereo not given),–,"inconclusive: 28.2 µM [inhibitor, partial curve, poor fit]"
COC(=O)C(Cc1ccc(N(CCCl)CCCl)cc1)N=Cc1ccccc1O (stereo not given),–,active: 3.16 µM
c1cncc(CNCCN2CCNCC2)c1,inactive: -8.14%,–
COc1cc(C[C@@H](C)N)c(OC)cc1Br,–,"inconclusive: 50.1 µM [inhibitor, partial curve]"
COc1cccc(C(c2nnnn2Cc2ccccc2)N2CCC3(CC2)C(=O)NCN3c2ccccc2)c1OC (stereo not given),–,"inconclusive: 31.6 µM [inhibitor, single point]"
Cn1c(NN=O)nc2ccccc21,–,"inconclusive: 3.98 µM [inhibitor, full curve]"
COC(=O)C1=C(c2ccc(-c3ccccc3)c(F)c2)C[C@@H]2CC[C@H]1N2C(=O)NCCNC(C)=O,inactive: -25.6%,–
CCCC[C@@H](C)C[C@@H](C)C(=O)N(C)[C@@H](CC(C)C)C(=O)N[C@H](C(=O)N(C)[C@H](C(=O)N1C[C@@H](O)C[C@H]1C(=O)N1C(=O)C=C[C@@H]1C)C(C)C)C(C)OC(C)=O (stereo not given in full),–,"inconclusive: 5.01 µM [inhibitor, full curve, poor fit]"
CCc1ccc(-n2nc(C)c3c2NC(=O)CSC3c2ccc(C(=O)OC)cc2)cc1 (stereo not given),–,"inconclusive: 14.1 µM [inhibitor, partial curve, poor fit]"
CN(C)NC(=O)CCC(=O)O,inactive: -7.05%,–
CCN(CC)C(=O)c1ccc(NC(=O)COc2ccc(-c3nn(C)c(=O)c4ccccc34)cc2)cc1,–,"inconclusive: 35.5 µM [inhibitor, single point]"
CCC(C)C1NC(=O)C2CCCN2C(=O)C(CC(C)C)OC(=O)CCNC(=O)C(C)N(C)C(=O)C(C(C)C)N(C)C1=O (stereo not given),–,"inconclusive: 5.97 µM [inhibitor, partial curve, poor fit]"
N#Cc1ccc(NC(=O)CN2CCN(C(=O)c3cccs3)CC2)cc1Cl,inactive: 1.63%,–
Cc1cc(NC(=O)CCl)on1,–,"inconclusive: 37.7 µM [inhibitor, single point]"
COc1ccc(C[C@H]2NC[C@H](O)[C@H]2OC(C)=O)cc1,–,active: 0.1 µM
COc1ccc(-n2nnnc2C(c2ccccc2OC(F)(F)F)N2CCC3(CC2)C(=O)NCN3c2ccccc2)cc1 (stereo not given),–,"inconclusive: 39.8 µM [inhibitor, single point]"
O=c1[nH]c2ccccc2n1C1CCN(C(c2nnnn2Cc2ccccc2)C2CC2)CC1 (stereo not given),–,"inconclusive: 12.6 µM [inhibitor, partial curve, poor fit]"
